# Reference: PubChem BioAssay (NCATS)
# “And” between values parts separate entries of the source, which are not always exact repeats. Identical values can stand only once. Inconclusive results, whose numbers are uncertain, are shown with a selection of clear calls. For part of these data: Where the call is inconclusive, the potency comes from a doubtful curve fit. The source made the active and inactive calls. Unless noted, calls follow the shape of the dose curve; as a rule, active = well fitted curve in the direction sought with a large enough effect; inconclusive = small, poorly fitted or top-dose-only effect, or another doubt; inactive = no such curve, though single readings can be large; an effect the other way counts as inactive or inconclusive.
# How the values were obtained:
# [1] = Primary qHTS for inhibitors of nuclear receptor binding SET domain protein 2 (NSD2) in an isogenic RCH-ACV NSD2 p.E1099K mutant (9B) (AID 1645876); also: nearly all actives have a fitted effect of over 70% in size
# HEK293 = experiment: Cytotoxic Profiling of Annotated Libraries Using Quantitative High-Throughput Screening (AID 1296008); conditions: Five cell lines viability, CellTiter-Glo ATP luminescence, 48-72 h; max response: active compounds read low; also: nearly all actives have a fitted effect of over 60% in size; as to max response: % is scaled to controls: 0 for no effect and ±100 for the full control effect
# Procedure, shortened: (§1)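 Cytotoxicity was measured as CellTiter-Glo ATP luminescence, read after 10 min at room temperature. Compound treatment of the cells lasted 48 or 72 hr at 37 degrees Celsius in a qHTS format.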
# HaCat = experiment: as above; conditions: Five cell lines viability, CellTiter-Glo ATP luminescence, 48-72 h; max response: active compounds read low
# Procedure, shortened: as §1
# Tov-21-G = experiment: Primary qHTS to identify gynecologic anti-cancer compounds using libraries of approved drugs and bioactive compounds (AID 1345084); conditions: Gynecologic cancer cell panel viability, ATPlite luminescence, 48 h; activity change, negative = cytotoxicity: at 57.5 µM (top of the series); also: nearly all actives have a fitted effect of over 55% in size; as to activity change, negative = cytotoxicity: % is scaled to controls: 0 for no effect and ±100 for the full control effect
# Procedure, shortened: (§2)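 Cells, 1,000 per well, were allowed to settle for 16 h at 37 C before compound addition. Five concentrations were tested for 48 h, and viability was read by ATPlite luminescence after 15 min at room temperature.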
# PA-1 = experiment: as above; conditions: Gynecologic cancer cell panel viability, ATPlite luminescence, 48 h; series mostly up to 57.5 µM
# Procedure, shortened: as §2
# SKOV3 = experiment: as above; conditions: Gynecologic cancer cell panel viability, ATPlite luminescence, 48 h; series mostly up to 57.5 µM
# Procedure, shortened: as §2
# [2] = Primary qHTS for inhibitors of nuclear receptor binding SET domain protein 2 (NSD2) in an RCH-ACV wild type WT cells (2C) (AID 1645877); conditions: activity change, negative = cell killing: at 44.9 µM (top of the series); also: nearly all actives have a fitted effect of over 70% in size
# [3] = tested on: Zika virus NS2B-NS3 protease (unlinked complex); experiment: Primary screen GU Rhodamine qHTS for Zika virus inhibitors: Unlinked NS2B-NS3 protease assay (AID 1347159); also: nearly all actives have a fitted effect of over 60% in size
# Procedure, shortened: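 A qHTS format was used, with compound concentrations ranging up to 114 microM. Each compound was preincubated with 25 nM NS2B-NS3 protease, and the substrate was then added at 1.5 microM. Curves were fitted with a 4-parameter Hill model.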
# [4] = P-glycoprotein substrates identified in KB-8-5-11 adenocarcinoma cell line, qHTS therapeutic library screen (AID 1346987); also: nearly all actives have a fitted effect of over 65% in size
# Procedure, shortened: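 P-gp-mediated resistance screen: KB-8-5-11 cells treated 72 h with compounds in dose-response. CellTiter-Glo viability.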
# Tov112D = experiment: Primary qHTS to identify gynecologic anti-cancer compounds using libraries of approved drugs and bioactive compounds (AID 1345084); conditions: Gynecologic cancer cell panel viability, ATPlite luminescence, 48 h; activity change, negative = cytotoxicity: at 57.5 µM (top of the series); also: nearly all actives have a fitted effect of over 55% in size; as to activity change, negative = cytotoxicity: % is scaled to controls: 0 for no effect and ±100 for the full control effect
# Procedure, shortened: as §2
# [5] = Primary fluorescence-based thiol-reactive (MSTI) qHTS assay for identification of artifact compounds. (AID 1845221);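 also: thiol-reactive compounds lower the probe fluorescence signal; nearly all actives have a fitted effect of over 65% in size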
# Procedure, shortened: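 qHTS titration of compound; 4 uM MSTI, PBS pH 7.4, 2% DMSO; 1 h RT, dark; fluorescence 525/598 nm; normalized to Acetyl-MSTI and MSTI; 4-parameter Hill fit.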
# [6] = molecular target: Cytochrome P450 2D6 (Homo sapiens) (UniProt P10635); experiment: Cytochrome P450 family 2 subfamily D member 6 (CYP2D6) small molecule antagonists: luciferase biochemical (cell-free) qHTS assay (AID 1645840; active = well fitted curve in the direction sought with a large enough effect in the repeat runs; inconclusive = weak or mixed curves; inactive = no such curve, though single readings can be large; an effect the other way counts as inactive or inconclusive; also: nearly all actives have a fitted effect of over 55% in size)
# Sequence of UniProt P10635 (P10635 whole entry, looked up): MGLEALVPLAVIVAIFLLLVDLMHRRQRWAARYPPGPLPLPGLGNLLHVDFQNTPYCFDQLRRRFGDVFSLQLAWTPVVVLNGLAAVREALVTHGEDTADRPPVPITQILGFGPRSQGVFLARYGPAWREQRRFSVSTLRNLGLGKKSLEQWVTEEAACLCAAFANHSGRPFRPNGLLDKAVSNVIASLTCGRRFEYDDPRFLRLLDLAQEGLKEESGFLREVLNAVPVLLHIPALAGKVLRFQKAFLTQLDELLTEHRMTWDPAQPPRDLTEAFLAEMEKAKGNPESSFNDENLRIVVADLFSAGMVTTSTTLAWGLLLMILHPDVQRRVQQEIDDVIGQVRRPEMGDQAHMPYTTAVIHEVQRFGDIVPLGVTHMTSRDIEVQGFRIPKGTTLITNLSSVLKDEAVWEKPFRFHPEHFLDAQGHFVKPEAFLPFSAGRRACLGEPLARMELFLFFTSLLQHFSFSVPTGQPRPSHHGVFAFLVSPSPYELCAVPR
# Procedure, shortened: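 P450-Glo luminescent screen: recombinant CYP2D6 enzyme–proluciferin substrate mix preincubated with compound 10 min at room temperature, then NADPH regeneration added for 1 h at room temperature. Detection reagent added for 20 min; luciferin light read as relative luminescence units.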
# Hek293T = experiment: Primary qHTS to identify gynecologic anti-cancer compounds using libraries of approved drugs and bioactive compounds (AID 1345084); conditions: Gynecologic cancer cell panel viability, ATPlite luminescence, 48 h, control line for the selectivity index; series mostly up to 57.5 µM; also: nearly all actives have a fitted effect of over 55% in size; as to activity change, negative = cytotoxicity: % is scaled to controls: 0 for no effect and ±100 for the full control effect
# Procedure, shortened: as §2
# OV90 = experiment: as above; conditions: Gynecologic cancer cell panel viability, ATPlite luminescence, 48 h; series mostly up to 57.5 µM
# Procedure, shortened: as §2
# Potency is read from the fitted curve at half-maximal effect; tags tell the direction and shape of the fitted curve.
smiles,measurement,setting,value
CC1(C)CC[C@]2(C(=O)O)[C@H](O)C[C@]3(C)C(=CCC4[C@@]5(C)CC[C@H](O[C@@H]6O[C@H](CO[C@@H]7OC[C@H](O)[C@H](O)[C@H]7O[C@@H]7OC[C@H](O)[C@H](O)[C@H]7O)[C@@H](O)[C@H](O)[C@H]6O)C(C)(C)C5CC[C@]43C)[C@@H]2C1 (stereo partly specified),Potency,[1],active: 4.35 µM
same,Potency,HEK293,"inconclusive: 7.78 µM [inhibitor, single point]"
same,outcome,HaCat,inactive
same,"activity change, negative = cytotoxicity",Tov-21-G,inactive: 4.39% [at 11.6 µM]
Cc1cccc(C)c1NC(=O)CN1CCCCCC1,max response,HEK293,inactive: 2.2%
same,Potency,HaCat,"inconclusive: 3.76 µM [inhibitor, partial curve, poor fit]"
same,Potency,PA-1,inactive
same,Potency,SKOV3,"inconclusive: 224 nM [rising, full curve, poor fit]"
COc1cc(NS(=O)(=O)c2ccc(N)cc2)ncn1,Potency,[1],"inconclusive: 23.7 µM [inhibitor, single point]"
same,Potency,[2],"inconclusive: 21.1 µM [inhibitor, single point]"
same,max response,HEK293,inactive: -0.739%
same,Potency,HaCat,"inconclusive: 2.66 µM [inhibitor, single point]"
same,Potency,SKOV3,"inconclusive: 39800 nM [rising, single point]"
C/C=C(/C)C(=O)O[C@@H]1C[C@@H](OC(=O)CC(C)C)C2(C)C3C(=O)C=C(C)C2C3C1(C)C (stereo partly specified),Potency,[3],"inconclusive: 7.08 µM [inhibitor, full curve, poor fit]"
same,Potency,[2],"inconclusive: 14.2 µM [inhibitor, single point]"
same,Potency,HEK293,"inconclusive: 8.93 µM [inhibitor, single point]"
same,Potency,HaCat,"inconclusive: 0.0089 µM [inhibitor, full curve]"
same,Potency,SKOV3,inactive
O=C(/C=C/c1ccccc1)OCC1=CC[C@@H]2C(C(=O)O)=CO[C@@H](O[C@@H]3O[C@H](CO)[C@@H](O)[C@H](O)[C@H]3O)[C@H]12,Potency,[4],inactive
same,outcome,HEK293,inactive
same,max response,HaCat,inactive: 0.992%
same,Potency,Tov112D,inactive
CC(C)(Cc1ccccc1)NCC(O)c1ccc(O)c(NS(C)(=O)=O)c1 (stereo unspecified),Potency,[3],"inconclusive: 100 µM [inhibitor, single point]"
same,Potency,[1],inactive
same,Potency,[2],"inconclusive: 0.459 µM [inhibitor, full curve]"
same,Potency,HEK293,"inconclusive: 23.1 µM [inhibitor, single point]"
same,max response,HaCat,inactive: 2.45%
same,Potency,SKOV3,inactive
CC1(C)Oc2ccc(C#N)cc2[C@@H](N2CCCC2=O)[C@@H]1O,Potency,[4],inactive
same,Potency,[1],"inconclusive: 23.7 µM [inhibitor, single point]"
same,Potency,[2],"inconclusive: 23.7 µM [inhibitor, single point]"
same,max response,HEK293,inactive: -3.16%
same,Potency,HaCat,"inconclusive: 33.5 µM [inhibitor, single point]"
same,Potency,SKOV3,inactive
CCN[C@@H]1C[C@H](N)[C@@H](O[C@H]2OC(CN)=CC[C@H]2N)[C@H](O)[C@H]1O[C@H]1OC[C@](C)(O)[C@H](NC)[C@H]1O,Potency,[1],inactive
same,Potency,[2],"inconclusive: 29 µM [inhibitor, single point]"
same,Potency,[5],"inconclusive: 3.27 µM [inhibitor, partial curve]"
same,Potency,HEK293,"inconclusive: 29.1 µM [inhibitor, single point]"
same,Potency,HaCat,"inconclusive: 3.17 µM [inhibitor, single point]"
same,Potency,PA-1,inactive
same,Potency,SKOV3,"inconclusive: 20 µM [rising, single point] and inconclusive: 3.16 µM [rising, single point]"
Nc1nccc(-c2c(-c3ccc(F)cc3)ncn2C2CCCCC2)n1,Potency,[4],"inconclusive: 23.1 µM [inhibitor, single point]"
same,Potency,[6],active: 15.1 µM
same,Potency,HEK293,"inconclusive: 23.1 µM [inhibitor, single point]"
same,Potency,HaCat,"inconclusive: 20.6 µM [inhibitor, single point]"
same,Potency,Hek293T,"inconclusive: 17.8 µM [cytotoxic, single point]"
same,Potency,OV90,"inconclusive: 0.794 µM [cytotoxic, full curve]"
same,Potency,PA-1,"inconclusive: 39.8 µM [cytotoxic, single point]"
same,Potency,Tov-21-G,"inconclusive: 15.8 µM [cytotoxic, partial curve]"
same,Potency,Tov112D,"inconclusive: 39.8 µM [cytotoxic, partial curve, poor fit]"
O=C(Nc1ccccc1C(=O)NC1CCCCNC1=O)c1cc2ccccc2s1 (stereo unspecified),Potency,[4],"inconclusive: 20.6 µM [inhibitor, single point]"
same,Potency,[3],active: 31.6 µM
same,Potency,HEK293,"inconclusive: 29.1 µM [inhibitor, single point]"
same,max response,HaCat,inactive: 4.7%
C[C@@H]1O[C@@H](OC(=O)Cc2ccccc2)[C@H](O)[C@H](O)[C@H]1O,Potency,[1],inactive
same,Potency,[2],inactive
same,Potency,[5],"inconclusive: 9.47 µM [inhibitor, partial curve]"
same,max response,HEK293,inactive: -2.15%
same,outcome,HaCat,inactive
COCCc1ccc(OCC2CO2)cc1 (stereo unspecified),Potency,[6],inactive
same,max response,HEK293,inactive: 1.88%
same,Potency,HaCat,"inconclusive: 0.015 µM [inhibitor, full curve]"
C=C1CC2OC(=O)C(=C)C2C(O)/C=C(\C)CCC1O (stereo unspecified),Potency,[4],inactive
same,Potency,[5],"inconclusive: 21.2 µM [inhibitor, partial curve]"
same,Potency,HEK293,"inconclusive: 25.9 µM [inhibitor, single point]"
same,outcome,HaCat,inactive
